From PubChem BioAssay (NCATS)
Inconclusive means that the source gave no clear call. Such entries were picked first, then a sample of the others. Potencies beside an inconclusive call are fits to weak or partial responses and may not hold up. The source made the active and inactive calls. Calls follow the shape of the dose curve; as a rule, active = well fitted activation curve with a large enough effect; inconclusive = small, poorly fitted or top-dose-only effect; inactive = no such curve, though single readings can be large or run the other way.

Molecular target: Cellular tumor antigen p53 (Homo sapiens) (UniProt P04637)
Experiment: Primary qHTS for small molecule compounds that upregulate eGFP-tagged delta133p53alpha (in N-terminal) cells. (AID 2060322); also: nearly all actives have a fitted effect of over 75% in size;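 as to activation: series mostly up to about 56 µM; 0% = DMSO vehicle and 100% = reference activator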
Conditions: NCI-H358 eGFP-delta133p53alpha fluorescence, 24 h; activation: hits give high values
Procedure, shortened: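 NCI-H358 cells pre-induced 24 h with 10 ng/ml doxycycline to express N-terminal eGFP-delta133p53alpha, then dosed 24 h at 37C without doxycycline; fixed, Hoechst-stained, GFP intensity by laser scanning cytometry, normalized to DMSO (0%) and 57.5 uM 5-azacytidine (100%).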
Potency is read from the fitted curve at half-maximal effect; tags tell the direction and shape of the fitted curve.

Chain of UniProt P04637 (P04637 whole entry, looked up): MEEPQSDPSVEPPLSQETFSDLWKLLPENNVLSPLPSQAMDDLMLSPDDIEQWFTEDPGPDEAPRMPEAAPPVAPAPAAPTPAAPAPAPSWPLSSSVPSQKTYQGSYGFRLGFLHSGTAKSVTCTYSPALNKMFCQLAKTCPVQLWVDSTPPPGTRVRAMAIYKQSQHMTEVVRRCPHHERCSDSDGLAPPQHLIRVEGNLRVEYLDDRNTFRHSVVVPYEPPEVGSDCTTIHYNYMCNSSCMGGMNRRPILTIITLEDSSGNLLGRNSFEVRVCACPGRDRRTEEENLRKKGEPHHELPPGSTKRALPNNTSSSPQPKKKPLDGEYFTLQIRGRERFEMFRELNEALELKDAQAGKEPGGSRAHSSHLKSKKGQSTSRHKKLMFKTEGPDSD

| Structure (SMILES) | activation | Potency |
| --- | --- | --- |
| CC(=O)OC1CC2(C)C3=CCC4(C)C5C(O)C(O)C(C(C)C)C5(C)CCC4(C)C3CCC2C(C)(C)C1OC1OC(CO)C(O)C(O)C1O (centres undefined) | inactive: -1.53% | – |
| CC(O)C(O)/C=C/C=C/C(=O)O[C@@H]1C=C(C(=O)O)[C@](O)(CO)[C@@]2(C)CCCC(C)(C)[C@H]12 (some centres undefined) | – | inconclusive: 0.0037 µM [activator, full curve, poor fit] |
| CC1(C)CC[C@]2(C(=O)O)CC[C@]3(C)C(=CCC4[C@@]5(C)CCC(O[C@@H]6OC[C@H](O)[C@H](O)[C@H]6O[C@@H]6O[C@H](CO)[C@@H](O)[C@H](O)[C@H]6O)[C@@](C)(CO)C5CC[C@]43C)[C@@H]2C1 (some centres undefined) | inactive: 14.3% | – |
| C1=CCOCc2cc(ccc2OCCN2CCCC2)Nc2nccc(n2)-c2cccc(c2)OCC1 | – | inconclusive: 13.7 µM [activator, partial curve, poor fit] |
| CCCOc1ccccc1-c1nc2n[nH]nc2c(=O)[nH]1 | – | inconclusive: 38.9 µM [activator, single point] |
| C#CC1(O)CC[C@H]2[C@@H]3CCC4=CCCC[C@@H]4[C@H]3CC[C@@]21C (some centres undefined) | – | inconclusive: 19.5 µM [activator, single point] |
| C=C1C2CCC3C(CCC4[C@@]3(C)CCC[C@@]4(C)C(=O)O)(C2)[C@@H]1OC(=O)/C(C)=C\C (some centres undefined) | inactive: -8.93% | – |
| NC(=Nc1ccccc1)Nc1ccccc1 | – | inconclusive: 11.2 µM [activator, partial curve, poor fit] |
| C=C1CC[C@@H]2[C@](C)(CO)[C@H](O)CC[C@@]2(C)[C@@H]1C/C=C1/C(=O)OCC1O (some centres undefined) | – | active: 23.9 µM |
